Out of some 48,000 compounds screened, about 120 (0.25%) were called active. Another 4% or so got no clear call; they are omitted. Calls come from the whole dose curve; as a rule, active = well fitted activation curve with a large enough effect; inconclusive = small, poorly fitted or top-dose-only effect, or another doubt; inactive = no such curve, though single readings can be large or run the other way. The list shows a part of the results.
Assay: Primary qHTS for Identification of Small Molecule Activators of Huntingtin-Antisense Promoter Activity; note: nearly all actives have a fitted effect of over 55% in size
Settings: HEK293 HTT-AS promoter firefly luciferase reporter (activity 0% = vehicle and -100% = no light), 24 h; series mostly up to 57.5 µM; activity change, positive = activation: at the top concentration
In short: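 Firefly luciferase readout (Dual-Glo, 10 min RT) after 24 h, 37 °C compound exposure (final up to 57.5 uM) of HEK293 reporter cells cultured 24 h beforehand; PTC124 at 50 uM final as control inhibitor; activity scaled vehicle 0%, zero RLU -100%.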

Activity change, positive = activation, inactive:
COc1ccc(OC)c(C2c3c(oc4ccc(C)cc4c3=O)C(=O)N2CCCN(C)C)c1 (stereo unspecified) -1.79%, C=Cc1c(C)c2cc3[nH]c(cc4nc(cc5nc(cc1[nH]2)C(C)=C5CCC(=O)O)C(CCC(=O)O)=C4C)c(C)c3C=C -7.01%, CC(=O)Nc1cccc(NC(=O)c2c(-c3ccccc3)c(-c3ccccc3)nn(C)c2=O)c1 -15%, CCOCc1cc(CN2CCN(c3cccc(Cl)c3)CC2)c(O)c2ncccc12 -37%, CCc1ccccc1NS(=O)(=O)c1ccc2c(c1)OCC(C(=O)N1CCCC1)O2 (stereo unspecified) -16.6%, CCCN(CCC)C(=O)CSc1nc2sc3c(c2c(=O)n1-c1ccccc1)CCN(C(C)=O)C3 -1.56%, CCc1ccc(-n2nc3ccc(NC(=O)c4ccc(C#N)cc4F)cc3n2)cc1 -6.88%, COc1cccc(CNC(=O)C2CCN(c3nnc(-n4c(C)ccc4C)s3)CC2)c1 6.65%, CCC(CC)C(=O)Nc1cccc(-c2nc3ccccc3s2)c1 -3.3%, CCOc1ccc(-c2nnc(SCC(=O)NCc3ccc(C)cc3)nc2-c2ccc(OCC)cc2)cc1 -2.3%, CCC(C(=O)Nc1cc(-c2nc3cccnc3s2)ccc1C)c1ccccc1 (stereo unspecified) 28.1%, Cc1ccc(Cl)cc1NC(=O)Cn1c(=O)c2ccccc2n2nncc12 0.337%, CCOc1ccccc1C1CC(=O)Oc2c1c(=O)n(C)c1ccccc21 (stereo unspecified) 15.8%, CCCCCCCCCCCCCCCCN -4.95%, Cc1ccc(-c2csc(=Nc3ccc(F)cc3)n2Cc2ccc3c(c2)OCO3)cc1C 11.6%, CCOc1ccccc1NS(=O)(=O)c1ccc(-c2cnc(C3CC3)o2)cc1 -46.2%, COc1cccc(NC(=O)CC(C)S(=O)(=O)c2ccc3c(c2)NC(=O)CO3)c1 (stereo unspecified) -13.6%, CC(=O)Nc1ccc(NC(=O)c2oc3ccc4c(c3c2C)C(=O)CC(C)(C)O4)cc1 -1.57%, O=c1c(N2CCc3ccccc3C2)csc2ccccc12 18.5%, O=C(NCCc1ccccc1)c1ccc2c(c1)N(Cc1ccccc1F)C(=O)c1ccccc1S2=O (stereo unspecified) 3.31%, Cc1ccc(-c2ccc(=O)n(CC(=O)Nc3cccc(C#N)c3)n2)cc1 -10.2%, CCOc1ccc(-c2nc3c(c(SCC(=O)N4CCCCC4)n2)Cc2ccccc2O3)cc1 5.67%, CNC(=O)C1CCC(Cn2c(=O)c3sccc3n(CC(=O)NCc3ccc(F)cc3)c2=O)CC1 (stereo unspecified) -17%, O=C(C1CCCN(S(=O)(=O)c2ccc(Br)s2)C1)N1CCN(c2ccccc2)CC1 (stereo unspecified) -32.5%, CC(=O)N1CCCc2cc(S(=O)(=O)N3CCCC(C(=O)Nc4cc(Cl)ccc4C)C3)ccc21 (stereo unspecified) -24.8%, Cc1ccc(C2CCN(C(=O)c3cnn(-c4ccc(C)cc4)c3C3CCN(C(=O)OC(C)(C)C)CC3)C2)cc1 (stereo unspecified) 26.5%, CC1=C(C(=O)Nc2cccnc2)C(c2ccccc2)n2nc(-c3ccc(O)cc3)nc2N1 (stereo unspecified) -7.11%, C=Cc1ccc(Cn2c(C(=O)O)c(CNCc3ccccc3)c3ccc(C)cc32)cc1 -57.6%, CCCCN(C)C(=O)C1CCC(CNS(=O)(=O)c2ccc(Cl)cc2)CC1 (stereo unspecified) -28.9%, CCC(Oc1ccccc1)C(=O)Nc1cc(-c2ccccc2OC)nn1-c1ccccc1 (stereo unspecified) 0.876%, Cc1ccc(CS(=O)(=O)c2ncc(Cl)c(C(=O)Nc3nc4ccc(F)cc4s3)n2)cc1 -86.1%, Cc1ccc(-c2nc3c(c(SCC(=O)Nc4ccccc4Cl)n2)Cc2c(CO)cnc(C)c2O3)cc1 -4.54%, CCOC(=O)c1c(S(=O)(=O)NCC(=O)NCc2cccc(C)c2)c(C)n(C)c1C -12.6%, COc1ccc(CCNC(=O)CSc2nc(-c3ccc(F)cc3)cc(C(F)(F)F)n2)cc1OC -19.4%, Cc1cccc(C(=O)Nc2nnc(S(=O)(=O)N(C)Cc3ccco3)s2)c1 -7.09%, CCCN1C[C@H](CSC)C[C@@H]2c3cccc4[nH]cc(c34)C[C@H]21 -14%, Cc1ccc(NC(=O)CN2C(=O)C3(SCC(=O)N3c3cccc(Cl)c3)c3ccccc32)cc1C (stereo unspecified) -33.8%, Cc1nn(-c2ccccc2)c2sc(C(=O)Nc3ccccc3Br)cc12 -18.1%, Cc1ccc(NS(=O)(=O)c2ccc3c(c2)CCCN3C(=O)C2CCC2)cc1Cl -28.3%, Nc1c(C(=O)Nc2ccc(C(=O)O)cc2)sc2nc3c(cc12)CCCC3 -73.7%, CCOC(=O)C(=O)CCCCCCl -1.9%, COCCNc1nc2c(S(=O)(=O)c3ccc(C)c(C)c3)nnn2c2ccc(Cl)cc12 12%, COc1cc(OC)cc(C(=O)Nc2ccc(S(=O)(=O)Nc3ncccn3)cc2)c1 -17%, Cc1nc2nncn2c(NCc2ccc(F)cc2)c1C -85.4%, Cc1ccc(NC(=O)CCS(=O)(=O)c2cc3c4c(c2)CCN4C(=O)CC3)c(C)c1 -7.04%, O=C(NCc1ccc2c(c1)CCN2C(=O)c1ccc(Cl)cc1)c1cccc(F)c1 1.95%, O=C(Nc1nnc(S(=O)(=O)Nc2ccccc2)s1)c1ccccc1Cl -9.98%, O=C1OC2(c3ccccc31)c1cc(I)c(O)c(I)c1Oc1c2cc(I)c(O)c1I -24.9%, CC(=O)Nc1ccccc1 -2.58%, COc1cccc(C(c2c(O)cc(C)n(Cc3ccco3)c2=O)N2CCN(c3ccccc3)CC2)c1 (stereo unspecified) -0.441%, COc1cc(Cl)c(C)cc1NC(=O)Cn1ncc2c([nH]c3ccccc32)c1=O -20.7%, COC(=O)c1cc2sccc2n1Cc1nc(-c2ccc(Cl)cc2)oc1C 19.6%, Cc1cc(C)n(C(C)CC(=O)NCc2ccc(N(C)C)cc2)n1 (stereo unspecified) -13.6%, CCc1ccccc1NC(=O)c1ccc2c(c1)N(Cc1cc(C)ccc1C)C(=O)c1ccccc1S2(=O)=O -26.3%, C[N+]1(C)[C@@H]2C[C@@H](OC(=O)C(O)(c3cccs3)c3cccs3)C[C@H]1[C@@H]1O[C@@H]12 -6.2%, CCOCCCn1c(SCC(=O)Nc2ccc(C)cc2)nc2ccccc2c1=O -26.6%, COc1ccc(CNC(=O)C(C)n2ccc3cc(S(=O)(=O)N4CCCC4)ccc32)cc1OC (stereo unspecified) -0.662%, Cc1cc(C)c(NC(=O)C2CCN(c3nnc(C)c4c(C)n(-c5ccccc5)nc34)CC2)c(C)c1 -17.6%, COc1ccccc1NC(=O)C1=C(C)Nc2nc(SCc3ccccc3C)nn2C1CC(C)C (stereo unspecified) -6.65%, O=C(COc1ccccc1)Nc1nnc(S(=O)(=O)N2CCCC2)s1 -9.56%, O=C(OCC1CCCO1)c1ccc2c(c1)N(Cc1ccccc1Cl)C(=O)c1ccccc1S2(=O)=O (stereo unspecified) -23.9%

— PubChem BioAssay AID1508624 (National Center for Advancing Translational Sciences (NCATS), 2021)
